# From the supplement of paper PMC8728848
# Some of the results follow.
# B1: FimA-N3 (Actinomyces oris) (protein)
# chain: MHHHHHHSSGVDLGTENLYFQSNAGLQGAQFQLYKAKNAYANTCSNEKEGAPIAINGQTTLTTDAQGAIDIKGLFISDSIDGADRDNQVNAMERCYVLVETKAPAGYVLPAGNGAATPVKVKAGEETTDN
# What was measured:
# Assay in all cases: glycan array binding signal (z-score within array); higher = stronger binding
# Settings in all cases: glycan notation: IUPAC condensed, linker removed
# [1] = biological target: Gal(b1-4)GlcNAc(b1-3)Gal(b1-4)GlcNAc(b1-6)[Gal(b1-3)]GalNAc
# Procedure, shortened: (§1)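 Arrays were curated from the Consortium for Functional Glycomics database, 3228 in total, and kept only where the protein sequence was available. Binding is expressed as a within-array Z-score. This score was averaged across arrays of the same protein sequence at different concentrations or buffers and across linkers, and negative values can be read as non-binding.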
# [2] = biological target: Gal(b1-4)GlcNAc(b1-3)Gal(b1-4)[Fuc(a1-3)]GlcNAc(b1-3)Gal(b1-4)[Fuc(a1-3)]GlcNAc
# Procedure, shortened: as §1
# [3] = biological target: Gal(b1-4)GlcNAc(b1-3)GalNAc
# Procedure, shortened: as §1
# [4] = biological target: Gal(b1-4)GlcNAc(b1-3)[Fuc(a1-3)GlcNAc(b1-6)]Gal(b1-4)Glc
# Procedure, shortened: as §1
# [5] = biological target: Gal(b1-4)GlcNAc(b1-3)[Gal(b1-4)GlcNAc(b1-6)]Gal(b1-4)GlcNAc
# Procedure, shortened: as §1
# [6] = biological target: Gal(b1-4)GlcNAc(b1-3)[GlcNAc(b1-6)]Gal(b1-4)GlcNAc
# Procedure, shortened: as §1
# [7] = biological target: Gal(b1-4)GlcNAc(b1-6)Gal(b1-4)GlcNAc
# Procedure, shortened: as §1
# [8] = biological target: Gal(b1-4)GlcNAc(b1-6)GalNAc
# Procedure, shortened: as §1
# [9] = biological target: Gal(b1-4)GlcNAc(b1-6)[Gal(b1-3)]GalNAc
# Procedure, shortened: as §1
# [10] = biological target: Gal(b1-4)GlcNAc(b1-6)[Gal(b1-4)GlcNAc(b1-3)]GalNAc
# Procedure, shortened: as §1
# [11] = biological target: Gal(b1-4)GlcNAc6P
# Procedure, shortened: as §1
# [12] = biological target: Gal(b1-6)Gal
# Procedure, shortened: as §1
# [13] = biological target: Gal3S(b1-3)GalNAc
# Procedure, shortened: as §1
# [14] = biological target: Gal3S(b1-3)GlcNAc
# Procedure, shortened: as §1
# [15] = biological target: Gal3S(b1-3)[Fuc(a1-4)]GlcNAc
# Procedure, shortened: as §1
# [16] = biological target: Gal3S(b1-4)Glc
# Procedure, shortened: as §1
# [17] = biological target: Gal3S(b1-4)Glc6S
# Procedure, shortened: as §1
# [18] = biological target: Gal3S(b1-4)GlcNAc
# Procedure, shortened: as §1
# [19] = biological target: Gal3S(b1-4)[Fuc(a1-3)]Glc6S
# Procedure, shortened: as §1
# [20] = biological target: Gal3S(b1-4)[Fuc(a1-3)]GlcNAc
# Procedure, shortened: as §1
# [21] = biological target: Gal3S(b1-4)[Fuc(a1-3)]GlcNAc6S
# Procedure, shortened: as §1
# [22] = biological target: Gal3S4S(b1-4)GlcNAc
# Procedure, shortened: as §1
# [23] = biological target: Gal3S6S(b1-4)GlcNAc
# Procedure, shortened: as §1
# [24] = biological target: Gal3S6S(b1-4)GlcNAc6S
# Procedure, shortened: as §1
# [25] = biological target: Gal4S(b1-4)GlcNAc
# Procedure, shortened: as §1
# [26] = biological target: Gal4S6S(b1-4)GlcNAc
# Procedure, shortened: as §1
# [27] = biological target: Gal6P(b1-4)GlcNAc
# Procedure, shortened: as §1
# [28] = biological target: Gal6S(b1-3)GlcNAc
# Procedure, shortened: as §1
# [29] = biological target: Gal6S(b1-3)GlcNAc6S
# Procedure, shortened: as §1
# [30] = biological target: Gal6S(b1-4)Glc
# Procedure, shortened: as §1
# [31] = biological target: Gal6S(b1-4)Glc6S
# Procedure, shortened: as §1
# [32] = biological target: Gal6S(b1-4)GlcNAc
# Procedure, shortened: as §1
# [33] = biological target: Gal6S(b1-4)GlcNAc6S
# Procedure, shortened: as §1
# [34] = biological target: GalNAc(a1-3)Gal
# Procedure, shortened: as §1
# [35] = biological target: GalNAc(a1-3)GalNAc
# Procedure, shortened: as §1
# [36] = biological target: GalNAc(a1-3)GalNAc(b1-3)Gal(a1-4)Gal(b1-4)Glc
# Procedure, shortened: as §1
# [37] = biological target: GalNAc(a1-3)GalNAc(b1-3)Gal(a1-4)Gal(b1-4)GlcNAc
# Procedure, shortened: as §1
# [38] = biological target: GalNAc(b1-3)Gal
# Procedure, shortened: as §1
# [39] = biological target: GalNAc(b1-3)Gal(a1-4)Gal(b1-4)GlcNAc
# Procedure, shortened: as §1
# [40] = biological target: GalNAc(b1-3)Gal(a1-4)Gal(b1-4)GlcNAc(b1-3)Gal(b1-4)Glc
# Procedure, shortened: as §1
# [41] = biological target: GalNAc(b1-3)Gal(a1-6)Gal(b1-4)Glc
# Procedure, shortened: as §1
# [42] = biological target: GalNAc(b1-3)GalNAc
# Procedure, shortened: as §1
# [43] = biological target: GalNAc(b1-3)GlcNAc
# Procedure, shortened: as §1
# [44] = biological target: GalNAc(b1-4)Gal(b1-4)Glc
# Procedure, shortened: as §1
# [45] = biological target: GalNAc(b1-4)GlcNAc
# Procedure, shortened: as §1
binder,measurement,setting,value
B1,glycan array binding signal (z-score),[1],-0.019
same,glycan array binding signal (z-score),[2],0.122
same,glycan array binding signal (z-score),[3],-0.523
same,glycan array binding signal (z-score),[4],-0.038
same,glycan array binding signal (z-score),[5],-0.334
same,glycan array binding signal (z-score),[6],-0.376
same,glycan array binding signal (z-score),[7],-0.237
same,glycan array binding signal (z-score),[8],0.068
same,glycan array binding signal (z-score),[9],1.14
same,glycan array binding signal (z-score),[10],0.729
same,glycan array binding signal (z-score),[11],-0.278
same,glycan array binding signal (z-score),[12],-0.439
same,glycan array binding signal (z-score),[13],-0.184
same,glycan array binding signal (z-score),[14],-0.003
same,glycan array binding signal (z-score),[15],0.055
same,glycan array binding signal (z-score),[16],0.681
same,glycan array binding signal (z-score),[17],-0.381
same,glycan array binding signal (z-score),[18],0.9
same,glycan array binding signal (z-score),[19],1.49
same,glycan array binding signal (z-score),[20],0.283
same,glycan array binding signal (z-score),[21],4.34
same,glycan array binding signal (z-score),[22],-0.023
same,glycan array binding signal (z-score),[23],1.16
same,glycan array binding signal (z-score),[24],-0.339
same,glycan array binding signal (z-score),[25],-0.198
same,glycan array binding signal (z-score),[26],-0.275
same,glycan array binding signal (z-score),[27],0.054
same,glycan array binding signal (z-score),[28],0.033
same,glycan array binding signal (z-score),[29],-0.446
same,glycan array binding signal (z-score),[30],0.552
same,glycan array binding signal (z-score),[31],0.022
same,glycan array binding signal (z-score),[32],1.07
same,glycan array binding signal (z-score),[33],-0.192
same,glycan array binding signal (z-score),[34],1.87
same,glycan array binding signal (z-score),[35],-0.412
same,glycan array binding signal (z-score),[36],-0.494
same,glycan array binding signal (z-score),[37],-0.164
same,glycan array binding signal (z-score),[38],2.63
same,glycan array binding signal (z-score),[39],0.281
same,glycan array binding signal (z-score),[40],1.45
same,glycan array binding signal (z-score),[41],-0.438
same,glycan array binding signal (z-score),[42],-0.297
same,glycan array binding signal (z-score),[43],-0.23
same,glycan array binding signal (z-score),[44],0.001
same,glycan array binding signal (z-score),[45],-0.022
